From PubChem BioAssay AID540317 (National Center for Advancing Translational Sciences (NCATS), 2011)
Among all 390,000 compounds or so, about 2,200 (0.56%) were called active. This list was built around the results that the source calls inconclusive (neither active nor inactive); the mix of calls is not that of the screen. The call rests on the fitted dose curve; in most records, active means well fitted inhibition curve with a large enough effect; inconclusive means small, poorly fitted or top-dose-only effect; inactive means no such curve, though single readings can be large or run the other way. A potency beside an inconclusive call is a rough fit, not a confirmed value.

What follows are compounds tested against Chromobox protein homolog 1 (Homo sapiens) (UniProt P83916) (assay: HTS for Inhibitors of HP1-beta Chromodomain Interactions with Methylated Histone Tails). Conditions: AlphaScreen HP1-beta / biotin-H3K9me3 peptide binding; series mostly up to 114 µM.
Chain of UniProt P83916 (P83916 whole entry, looked up): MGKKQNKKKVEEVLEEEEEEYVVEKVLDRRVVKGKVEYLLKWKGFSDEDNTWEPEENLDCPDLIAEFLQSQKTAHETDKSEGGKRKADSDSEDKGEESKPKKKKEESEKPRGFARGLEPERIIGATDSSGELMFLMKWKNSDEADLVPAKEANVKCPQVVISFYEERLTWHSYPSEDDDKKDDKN
In short: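 HP1-beta protein (50 nM final) preincubated 30 min at room temperature with biotinylated H3(1-18)K9me3 peptide (50 nM) in PBS pH 7.4, 0.01% Tween-20, then compound added for 30 min. AlphaScreen streptavidin donor/nickel chelate acceptor beads (10 ug/mL final), 30 min dark, luminescence read.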
Further: nearly all actives have a fitted effect of over 70% in size.
Potency means the concentration at half of the fitted maximal effect; tags describe the fitted curve by direction and shape.

SMILES | Potency
COc1ccccc1N1N=C(c2ccc([N+](=O)[O-])cc2)CC1c1ccccc1 (stereo unspecified) | inconclusive: 20 µM [inhibitor, full curve]
COCCNC(=O)/C(C#N)=C/c1c(N2CCN(c3cccc(Cl)c3)CC2)nc2c(C)cccn2c1=O | inconclusive: 39.8 µM [inhibitor, partial curve, poor fit]
COc1ccc(Nc2nc(-c3sc(C)nc3C)cs2)cc1 | inconclusive: 50.1 µM [inhibitor, partial curve, poor fit]
COC(=O)n1c(=O)oc2ccccc21 | inactive
Cc1ccc(NS(=O)(=O)c2cc(NC(=O)c3ccc4c(c3)NC(=O)CS4)ccc2C)c(C)c1 | inconclusive: 12.6 µM [inhibitor, full curve]
C/C(=N/N1CCN(Cc2cccc3ccccc23)CC1)c1ccco1 | inconclusive: 39.8 µM [inhibitor, partial curve, poor fit]
CCN(CC)c1ccc(/C=N/Nc2nc3ccccc3[nH]2)cc1 | inconclusive: 39.8 µM [inhibitor, partial curve]
CCOc1ccc(C(=S)N2CCN(C)CC2)cc1 | inactive
CSc1ccc2c(c1)N(CCC1CCCCN1C)c1ccccc1S2 (stereo unspecified) | inconclusive: 39.8 µM [inhibitor, partial curve]
CC(C)CNCC(=O)N1c2ccccc2Sc2ccccc21 | inconclusive: 35.5 µM [inhibitor, partial curve, poor fit]
Cc1[nH]c2ccccc2c1N=Nc1ccccc1F | inconclusive: 25.1 µM [inhibitor, partial curve]
Clc1cc(Cl)c(OCCCCn2cncn2)c(Cl)c1 | inconclusive: 14.1 µM [inhibitor, partial curve, poor fit]
CCC(CC)C(=O)Oc1c(Sc2ccccc2[N+](=O)[O-])c(C)nn1C(C)(C)C | inconclusive: 25.1 µM [inhibitor, single point]
Cc1c(N=NC2=C(O)CC(C)(C)CC2=O)cc2c(c1[N+](=O)[O-])C(C)(C)CC2(C)C | inconclusive: 14.1 µM [inhibitor, full curve]
COc1ccc(Br)cc1C(=O)Nc1ccc(N2CCCC2)cc1 | inconclusive: 15.8 µM [inhibitor, full curve]
CCOc1ccc(C2C(C(=O)Nc3ccccc3OC)=C(C)Nc3c(C(=O)Nc4cccc(C)c4)cnn32)cc1 (stereo unspecified) | inactive
COC(=O)C1=C(C)N(Cc2ccc(OC)cc2)C(=O)/C1=C\c1ccco1 | inconclusive: 20 µM [inhibitor, full curve]
COc1ccc(NC(=O)COC(=O)CC2CC3CCC2C3)c([N+](=O)[O-])c1 (stereo unspecified) | inconclusive: 15.8 µM [inhibitor, full curve, poor fit]
O=S(=O)(NNc1ncc(C(F)(F)F)cc1Cl)c1ccccc1 | inconclusive: 8.91 µM [inhibitor, full curve]
O=C1C(Cl)=C(Nc2ccccc2O)C(=O)N1c1ccccc1 | inconclusive: 50.1 µM [inhibitor, partial curve, poor fit]
Cn1c(=O)n(Cc2ccccc2Cl)c(=O)c2c1[nH]c(=S)n2C | inconclusive: 20 µM [inhibitor, full curve]
CCc1nnc(NC(=O)c2ccc(COc3ccccc3C)o2)s1 | inactive

SMILES | Potency
CCOC(=O)N1CCC(n2c(SCC(=O)NCCc3ccc(S(N)(=O)=O)cc3)nc3ccccc3c2=O)CC1 | inconclusive: 89.1 µM [inhibitor, single point]
CCOC1CCCC(n2cnc3c(=S)nc[nH]c32)O1 (stereo unspecified) | inconclusive: 89.1 µM [inhibitor, single point]
CCN(CC)c1ccc(NC(=O)c2ccc(Br)o2)cc1 | inconclusive: 31.6 µM [inhibitor, partial curve]
CN(C)S(=O)(=O)c1ccc(Cl)c(NC(=O)COC(=O)[C@@H]2CCCN2C(=O)c2cccs2)c1 | inconclusive: 39.8 µM [inhibitor, partial curve]
CCN(CC)c1ccc(/C=N/OC(C)C(=O)Nc2ccc(C)cc2)cc1 (stereo unspecified) | inactive
O=c1oc2c(-c3ccc([N+](=O)[O-])cc3)cc(O)cc2s1 | inconclusive: 70.8 µM [inhibitor, partial curve, poor fit]
CC(C)COc1ccc(C(=O)Nc2ccccc2[N+](=O)[O-])cc1 | inconclusive: 50.1 µM [inhibitor, partial curve, poor fit]
Cc1ccc(CNC(=O)Cn2cc(S(=O)(=O)Cc3cccc(Cl)c3)c3ccccc32)cc1 | inactive
Cc1sc(N)nc1-c1c(C)n(C)c2ccccc12 | inactive
CCCC(=O)Nc1ccc2c(c1)c1ccccc1n2CC | inconclusive: 39.8 µM [inhibitor, single point]
CC(/C=N/n1c(COc2ccccc2)n[nH]c1=S)=C\c1ccco1 | inconclusive: 8.91 µM [inhibitor, full curve]
Cn1nnnc1Sc1ncnc2scc(-c3cccs3)c12 | inconclusive: 56.2 µM [inhibitor, single point]
N#Cc1nc(Cc2cccc3ccccc23)oc1NCc1ccc(F)cc1 | inconclusive: 17.8 µM [inhibitor, full curve, poor fit]
CCN(C(=O)Cn1c(=O)oc2ccccc21)c1cccc(C(F)(F)F)c1 | inactive
Cc1cc(C(=O)NC(=S)Nc2ccccc2N2CCOCC2)ccc1[N+](=O)[O-] | inconclusive: 25.1 µM [inhibitor, single point]
CSc1ccc(CNCc2ccc3c(c2)OCO3)cc1 | inconclusive: 56.2 µM [inhibitor, partial curve, poor fit]
COc1cc(/C=C/C(=O)Nc2cc(S(=O)(=O)N3CCOCC3)ccc2N2CCCC2)cc(OC)c1OC | inconclusive: 8.91 µM [inhibitor, full curve]
Nc1cccc(-c2nnc3n2CCCCC3)c1 | inactive
O=C(OC(c1ccccc1)c1nccc2ccccc12)c1ccccc1 (stereo unspecified) | inactive
CCn1cc(/C=C(/C#N)S(=O)(=O)c2ccccc2)cn1 | inactive
CCCCOC(=O)Nc1ccc(N2CCCCC2)cc1 | inconclusive: 50.1 µM [inhibitor, single point]
CCCCNC(=O)C1CCN(Cc2ccc(OCc3ccccc3)cc2)CC1 | inconclusive: 56.2 µM [inhibitor, partial curve, poor fit]

SMILES | Potency
O=C(Nc1ccc(C(=O)O)cc1)/C(=C\c1ccco1)NC(=O)c1ccccc1Cl | inconclusive: 89.1 µM [inhibitor, single point]
O=[N+]([O-])c1ccc(Cl)c(-c2ccc(/C=N/c3c(-c4ccco4)nc4ccccn34)o2)c1 | inconclusive: 6.31 µM [inhibitor, full curve]
O=C(COc1ccc(Br)cc1Cl)NCCCN1CCOCC1 | inactive
COc1ccc(Nc2sc(C(=O)c3ccccc3)c(N)c2C(=O)Nc2cc(C)ccc2C)c(OC)c1 | inconclusive: 31.6 µM [inhibitor, partial curve]
Cc1cc(C)cc(NC(=O)CN(c2ccc(F)cc2)S(C)(=O)=O)c1 | inconclusive: 8.91 µM [inhibitor, partial curve, poor fit]
CCC1C(=O)CC(c2ccc([N+](=O)[O-])cc2)NC1c1ccc([N+](=O)[O-])cc1 (stereo unspecified) | inactive
COc1ccc(/C=C/C(=O)NCC(=O)N2CCC(N(C)CCN3CCOCC3)CC2)cc1OC | inconclusive: 79.4 µM [inhibitor, single point]
COCCN1C(=O)C(=O)/C(=C(/O)c2ccc(S(=O)(=O)N3CCOCC3)cc2)C1c1cccc([N+](=O)[O-])c1 (stereo unspecified) | inactive
C/C(=N\NC(N)=S)C1=CCC2C3CC[C@H]4CC(O)CC[C@]4(C)C3CC[C@]12C (stereo partly specified) | inconclusive: 7.94 µM [inhibitor, partial curve, poor fit]
O=C(N/N=C/c1cc(Cl)cc([N+](=O)[O-])c1O)c1cc(-c2ccccn2)nc2ccccc12 | inconclusive: 22.4 µM [inhibitor, full curve]
CC(C)CC(=O)Nc1ccc(C(=O)COc2ccc(-c3nnco3)cc2)cc1 | inactive
CN(C)CCN(C(=O)c1ccc2ccccc2c1)c1nc2cc3c(cc2s1)OCCO3 | inconclusive: 50.1 µM [inhibitor, partial curve]
O=[N+]([O-])c1ccc(C2=NN(c3ccccc3)C(c3ccco3)C2)cc1 (stereo unspecified) | inconclusive: 50.1 µM [inhibitor, partial curve]
CSc1nsc(/C=C/Nc2ccc(C(=O)O)cc2)c1C#N | inconclusive: 50.1 µM [inhibitor, single point]
O=C(/C=C/c1ccc(O)c(O)c1)OC1C(O)CC(OC(=O)/C=C/c2ccc(O)c(O)c2)(C(=O)O)CC1O (stereo unspecified) | inactive
CCN(CC)c1ccc(C=Nc2ccc(N(C)C)cc2)c(O)c1 | inconclusive: 28.2 µM [inhibitor, partial curve, poor fit]
Cc1cc(Br)cc2c1N(Cc1ccccc1OC(C)C)C(=O)C2=O | inconclusive: 10 µM [inhibitor, full curve, poor fit]
O=C(NC(=S)Nc1cccc2c(O)cccc12)c1ccco1 | inconclusive: 20 µM [inhibitor, full curve]
COc1ccc(/C=C2\SC(=S)N(CCC(=O)Nc3ccc(C(=O)O)cc3)C2=O)cc1OC | inactive
CCOC(=O)CNC(=O)c1cc2c(=O)n3cccc(C)c3nc2n1C | inactive
Fc1ccccc1N1CCN(C2CCCN(Cc3ccccc3C(F)(F)F)C2)CC1 (stereo unspecified) | inactive
COc1ccc(NC(=O)c2nc(-c3ccc(C)cc3)n3c2CCCCC3)c(OC)c1 | inactive
